Data from paper PMC10140047.
Results are given in words; binding and its absence hold for the method and conditions named. Binding seen in cells or lysates may run through a third protein. Some binding calls cover weakened binding; strength is not graded here.

By UniProt entry, the sequences of proteins in these tests, tags left out. Where a name states a change or a piece, a line headed by the entry shows the natural chain unless it says otherwise. Residues count along the entry.
UniProt Q921C5: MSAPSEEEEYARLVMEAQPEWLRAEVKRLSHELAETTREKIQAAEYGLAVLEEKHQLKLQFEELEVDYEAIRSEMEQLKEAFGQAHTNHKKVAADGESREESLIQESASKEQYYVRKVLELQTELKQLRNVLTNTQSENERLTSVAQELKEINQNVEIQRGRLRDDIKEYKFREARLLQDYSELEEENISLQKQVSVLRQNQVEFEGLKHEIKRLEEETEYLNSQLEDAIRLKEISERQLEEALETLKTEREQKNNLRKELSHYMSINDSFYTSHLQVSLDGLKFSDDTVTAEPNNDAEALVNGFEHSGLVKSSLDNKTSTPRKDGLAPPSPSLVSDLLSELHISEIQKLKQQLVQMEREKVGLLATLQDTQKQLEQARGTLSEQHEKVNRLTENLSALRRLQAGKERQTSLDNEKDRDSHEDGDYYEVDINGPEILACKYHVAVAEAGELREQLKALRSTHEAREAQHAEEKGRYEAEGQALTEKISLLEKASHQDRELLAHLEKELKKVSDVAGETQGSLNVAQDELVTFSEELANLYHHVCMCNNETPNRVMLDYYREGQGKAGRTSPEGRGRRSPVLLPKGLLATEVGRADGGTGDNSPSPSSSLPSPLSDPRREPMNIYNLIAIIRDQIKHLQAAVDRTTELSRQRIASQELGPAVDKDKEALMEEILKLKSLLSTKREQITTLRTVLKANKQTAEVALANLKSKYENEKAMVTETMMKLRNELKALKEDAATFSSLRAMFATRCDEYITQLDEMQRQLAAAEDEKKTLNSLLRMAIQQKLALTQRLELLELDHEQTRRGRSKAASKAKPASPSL
GFP-BICD2 [1–575]: residues 1-575 of Q921C5
UniProt Q8TD16: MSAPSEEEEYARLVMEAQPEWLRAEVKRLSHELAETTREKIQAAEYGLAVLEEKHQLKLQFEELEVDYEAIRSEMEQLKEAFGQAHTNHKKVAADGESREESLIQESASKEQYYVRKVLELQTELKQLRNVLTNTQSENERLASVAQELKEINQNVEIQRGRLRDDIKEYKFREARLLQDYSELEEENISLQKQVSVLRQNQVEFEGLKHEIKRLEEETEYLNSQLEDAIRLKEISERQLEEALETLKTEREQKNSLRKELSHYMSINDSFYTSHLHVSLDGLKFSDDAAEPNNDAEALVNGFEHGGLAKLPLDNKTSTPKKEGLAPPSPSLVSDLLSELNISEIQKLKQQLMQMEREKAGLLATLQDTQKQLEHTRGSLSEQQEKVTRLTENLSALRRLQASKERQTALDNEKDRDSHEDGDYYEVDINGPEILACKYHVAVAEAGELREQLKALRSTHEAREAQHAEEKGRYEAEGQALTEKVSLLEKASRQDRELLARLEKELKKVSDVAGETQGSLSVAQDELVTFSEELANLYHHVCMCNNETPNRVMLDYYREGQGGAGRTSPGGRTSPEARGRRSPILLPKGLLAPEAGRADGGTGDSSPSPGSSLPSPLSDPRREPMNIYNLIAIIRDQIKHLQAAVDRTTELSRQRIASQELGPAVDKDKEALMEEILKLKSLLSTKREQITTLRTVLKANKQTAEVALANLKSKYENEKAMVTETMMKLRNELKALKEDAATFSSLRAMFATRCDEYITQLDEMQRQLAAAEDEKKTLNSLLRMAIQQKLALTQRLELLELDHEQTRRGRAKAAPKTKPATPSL

Experiments:
[1] = molecular target: GST-PLK1 PBD (GST-PLK1 [354–603]) (UniProt P53350); test: pull-down; bacterially expressed GST-PBD bound to GSH agarose beads incubated with extracts of HeLa cells (exponentially growing or mitotic; untransfected or expressing GFP-BICD2 forms); western blot for BICD2 or GFP; only the target purified
[2] = molecular target: GFP-BICD2 wild type (mouse) (UniProt Q921C5); test: co-IP; anti-GFP immunoprecipitates of GFP-fusion proteins from transfected HeLa cells (exponentially growing or mitotic), blotted for endogenous PLK1
[3] = molecular target: GFP-BICD2 [T319A, S320A, T321A] (mouse) (UniProt Q921C5); test: as above
[4] = molecular target: GFP-BICD2 [1–575] (mouse) (UniProt Q921C5); test: as above
[5] = molecular target: BICD2 (endogenous, HeLa cells) (human (endogenous in HeLa)) (UniProt Q8TD16); test: co-IP; anti-BICD2 immunoprecipitates of endogenous BICD2 from exponentially growing and mitotic HeLa cell extracts, blotted for PLK1; normal IgG as control

Row | binding [1] | binding [2] | binding [3] | binding [4] | Substance | binding [5]
1 | no binding |  |  |  | GFP-BICD2 [T319A, S320A, T321A] (from UniProt Q921C5 1-820) | 
2 | binds |  |  |  | GFP-BICD2 wild type (from UniProt Q921C5 1-820) | 
3 |  | binds | no binding | binds | PLK1 (endogenous, HeLa cells) (from UniProt P53350 1-603) (enzyme) | binds

Row | Substance | binding [1] | binding [2] | binding [3] | binding [4] | binding [5]
4 | BICD2 (endogenous, HeLa cells) (from UniProt Q8TD16 1-824) | binds |  |  |  | 
